# Some of the results follow. Values were computed here from the reads of four pooled replicates and scatter widely.
# Target: T1, Pho4 (S. cerevisiae) (UniProt P07270)
# T1 sequence: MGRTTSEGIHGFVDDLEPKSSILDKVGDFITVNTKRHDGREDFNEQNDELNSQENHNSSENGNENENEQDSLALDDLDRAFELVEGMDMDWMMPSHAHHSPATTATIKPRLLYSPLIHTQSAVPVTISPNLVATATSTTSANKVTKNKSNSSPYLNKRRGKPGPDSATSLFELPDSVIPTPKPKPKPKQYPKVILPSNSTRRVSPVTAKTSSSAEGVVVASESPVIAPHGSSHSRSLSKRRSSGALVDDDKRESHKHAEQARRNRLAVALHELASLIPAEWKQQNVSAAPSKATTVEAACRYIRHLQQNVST
# Experiment: relative binding free energy (BET-seq); higher = weaker binding
# Conditions: reference: library average
row,Sequence,relative binding free energy [kcal/mol]
1,TGCTACACGTGTGAGG,0.13
2,TTGCGCACGTGTTTTA,-0.2
3,TTCGTCACGTGGAGGA,0.09
4,TTCGTCACGTGTAGGA,0.28
5,TATGACACGTGGTATG,-0.08
6,GGGTACACGTGTAATT,0.17
7,GTCATCACGTGGTGGC,0.07
8,GGGTGCACGTGAAAAG,0.22
9,GATTGCACGTGGTGAT,0.12
10,TAGGGCACGTGGTGCA,-0.18
11,TGGTGCACGTGCTGTC,-0.05
12,GCGGTCACGTGTTAGG,0.28
13,GAGTCCACGTGGCGGG,-0.05
14,GAGTGCACGTGTGGCC,0.07
15,CTGGGCACGTGGGTAC,-0.31
16,AGTGACACGTGTACGT,0.11
17,GTAAGCACGTGTGTGC,-0.19
18,AGACGCACGTGAGGTT,0.12
19,TTAGTCACGTGAGTAT,0.21
20,TGGGTCACGTGCTTTG,0.06
21,TAAGTCACGTGCTGGA,0.1
22,GGCTGCACGTGAGGTT,0.25
23,TAAGACACGTGTCGTT,0.16
24,GTGGACACGTGTTTTC,0.09
25,GCTTTCACGTGGTTTG,0.3
26,TTTTCCACGTGTGAAT,0.21

row,Sequence,relative binding free energy [kcal/mol]
1,AACATCACGTGTGTTG,0.22
2,GTACTCACGTGAGGGA,0.35
3,GCTTTCACGTGTGCTT,0.37
4,AACAGCACGTGTGGTG,0.03
5,AGTGTCACGTGACTTG,-0.03
6,GGTTGCACGTGGTCCT,0.02
7,TATGTCACGTGATTCA,0.16
8,TAATTCACGTGATCTG,0.26
9,TATGGCACGTGTAATT,0.01
10,TGGCGCACGTGCGGGT,-0.1
11,GATCACACGTGAGTGG,0.37
12,ATGCGCACGTGGGCAT,-0.2
13,CAGGTCACGTGGGTGA,-0.06
14,ATGAGCACGTGTAATG,-0.1
15,GGGCCCACGTGGTGTT,-0.07
16,TGTCACACGTGATTGT,0.16
17,GGTAGCACGTGTAATA,-0.03
18,GTTATCACGTGGTTGG,0.19
19,TTGGGCACGTGTAGTA,-0.04
20,ATAGCCACGTGGTGGA,-0.13
21,TATAGCACGTGAGTTG,0.28
22,AAGTTCACGTGGCGAT,0.24
23,GTATACACGTGGGCGT,-0.24
24,TGGCGCACGTGGCTGG,-0.23
25,ATGGGCACGTGTTACG,-0.2
26,CTTATCACGTGTTGCT,0.13

row,Sequence,relative binding free energy [kcal/mol]
1,TGGGACACGTGATGGC,-0.02
2,CGGTACACGTGGGATA,0.02
3,GATATCACGTGAGTGA,0.32
4,GGGGTCACGTGACAGG,0.38
5,CCGTTCACGTGGTGGC,0.38
6,TCCAACACGTGTGTGT,0.23
7,GGTAACACGTGGGGTC,-0.12
8,AGGGCCACGTGAGTGT,-0.02
9,ATTGTCACGTGATCGA,0.2
10,TATTTCACGTGTATAA,0.21
11,CGGAGCACGTGTGGTT,0.05
12,AGAGGCACGTGCAGAT,-0.06
13,ATTATCACGTGTGAGG,0.27
14,CTTAGCACGTGGGATG,-0.2
15,TATATCACGTGGTTGT,0.14
16,TTGAGCACGTGGTGAA,-0.03
17,TTGGACACGTGAGTCG,0.17
18,CGTGCCACGTGGGTGA,-0.19
19,ATGTTCACGTGCATTG,0.12
20,TGGCACACGTGCGAGG,-0.01
21,ATTCGCACGTGGGATG,-0.01
22,TAACTCACGTGTGGGC,0.34
23,GAGATCACGTGTCGTT,0.24
24,TGTTTCACGTGGGGGT,0.17
25,AGGTGCACGTGTCAGA,0.12
26,GGGTGCACGTGTGCTT,-0.04

row,Sequence,relative binding free energy [kcal/mol]
1,TGCTGCACGTGAATGT,0.1
2,ATTATCACGTGTGCTA,0.19
3,ATTAGCACGTGTGTGT,-0.01
4,CATGGCACGTGAGTAG,0.02
5,ATTTGCACGTGAAATT,0.33
6,TTCAGCACGTGGTATG,-0.15
7,GTGTTCACGTGCGTAG,0.31
8,TAAAGCACGTGAGTTT,0.3
9,AGTTTCACGTGGGGCC,0.39
10,TTAGTCACGTGACTGT,0.2
11,TGATGCACGTGTGTGC,-0.1
12,TGTTCCACGTGTAATG,0.13
13,GTGTACACGTGTGTGA,0.04
14,GAAATCACGTGTAGGT,0.18
15,TCAGACACGTGGGTAG,-0.07
16,TTCGACACGTGGGAGT,-0.04
17,GGATACACGTGATTAT,0.31
18,TTCTTCACGTGAAGAT,0.46
19,GTGGGCACGTGTAAGC,0.09
20,TTGAGCACGTGGTATG,-0.1
21,GGGGCCACGTGTTAGT,-0.05
22,AAGGGCACGTGAATAG,0.19
23,ATGTGCACGTGTGATG,0.05
24,TATCTCACGTGGCGTG,0.09
25,TTTTCCACGTGTCATT,0.09
26,TCTTGCACGTGGATGG,0.09

row,Sequence,relative binding free energy [kcal/mol]
1,CGATGCACGTGGTATG,-0.14
2,TCTGGCACGTGGGAGA,-0.21
3,GCGGGCACGTGTGAGT,0.09
4,CTATTCACGTGGGTAA,0.11
5,TGTTTCACGTGGTAGG,0.24
6,TAGTTCACGTGTGAAG,0.29
7,ATAGTCACGTGCTTTG,0.16
8,CGATCCACGTGGGGTG,-0.13
9,GTACGCACGTGGTGAT,-0.22
10,TCATTCACGTGGGTGT,0.13
11,TGTGACACGTGCTGGC,-0.08
12,AGGTGCACGTGCAGTA,-0.18
13,GTATACACGTGGCGAT,0.27
14,GAGTGCACGTGTTGGC,0.18
15,TCCAGCACGTGGGGTA,-0.17
16,AGGGTCACGTGGTCTG,0.09
17,TGTCTCACGTGATGAG,0.45
18,GAGGACACGTGGTGGA,0.05
19,ATGGGCACGTGGACAG,-0.27
20,AGAAACACGTGTATGG,-0.02
21,TCTATCACGTGAGGGG,0.12
22,TTTGTCACGTGGGCAT,0.04
23,GATTTCACGTGCTGGG,0.27
24,TGGATCACGTGATAAT,0.21
25,TCGTGCACGTGTTTGA,-0.2
26,AGATGCACGTGCGCGG,-0.22

row,Sequence,relative binding free energy [kcal/mol]
1,GTCGGCACGTGGCGTA,-0.04
2,GGTGGCACGTGGCAAA,-0.14
3,TGTTTCACGTGAGGTG,0.46
4,AGGAGCACGTGGGTGC,-0.12
5,TGAACCACGTGTTGTT,0.07
6,ATGTTCACGTGATGAA,0.29
7,AGTATCACGTGTGTGG,0.09
8,GGGGGCACGTGATAGA,0.04
9,ATGGTCACGTGTTAGA,0.07
10,AAATACACGTGGGGAT,0.08
11,TGAAGCACGTGTCTGA,-0.02
12,CCGGGCACGTGGTGGG,-0.15
13,CGTGACACGTGTGTTG,0.06
14,GGCATCACGTGTGAGG,0.22
15,TTGATCACGTGAGGGG,0.33
16,AATACCACGTGGGTTT,-0.11
17,TCATGCACGTGGTAGG,-0.2
18,TGGTTCACGTGACGGG,0.34
19,TAGGCCACGTGTTGGT,-0.07
20,TCTCTCACGTGTTTTG,0.18
21,AGGTGCACGTGGTGAG,-0.05
22,GGTTGCACGTGCTTTA,-0.07
23,TTTATCACGTGGTATA,0.04
24,GTGCACACGTGGGGGT,-0.15
25,TTCTGCACGTGGGAGA,-0.12
26,AGGGTCACGTGGCGGT,0.12

row,Sequence,relative binding free energy [kcal/mol]
1,GTATGCACGTGTTAGT,0.07
2,TGTGTCACGTGATCGG,0.1
3,TTGTGCACGTGGGTTG,-0.2
4,TCGTACACGTGTATGT,0.09
5,TTCGTCACGTGCTTGT,-0.08
6,GCGTGCACGTGGTTGG,0.06
7,ATTCGCACGTGAGGTT,0.19
8,GTCTGCACGTGGGGAA,-0.04
9,TGTTACACGTGTGTTG,0.09
10,TGTATCACGTGTCAAT,0.05
11,CTGGGCACGTGTGCGT,-0.12
12,GCATTCACGTGTTGGA,0.24
13,AGTGCCACGTGGCGGG,-0.28
14,TATGGCACGTGTAGAT,0.19
15,TGGGGCACGTGGAGCT,-0.19
16,TATAGCACGTGATGTC,0.12
17,ATTTACACGTGGATGT,0.03
18,TTTCACACGTGTGTTG,-0.05
19,GGTGTCACGTGATTTA,0.21
20,TTCGTCACGTGCTATG,-0.01
21,GAAGTCACGTGTGGCT,0.21
22,AGGGGCACGTGAAGCT,0.16
23,TAACTCACGTGGGTGA,0.07
24,GGTTGCACGTGTGTGT,0.05
25,TTAGGCACGTGCCGTA,-0.14
26,CTGTGCACGTGGGTTA,-0.1

row,Sequence,relative binding free energy [kcal/mol]
1,TATGGCACGTGTGTGC,-0.15
2,GGGGGCACGTGAGAGA,0.21
3,TGGGTCACGTGGAGAC,0.07
4,TGAGTCACGTGGCAAG,0.03
5,AGATACACGTGTCGTG,0.05
6,TACTACACGTGGGTTG,-0.01
7,GTAGGCACGTGGGAAG,-0.09
8,TGATACACGTGATGTG,0.12
9,TTGTACACGTGTGTGT,0.05
10,GGTATCACGTGGGGAA,0.13
11,GGATTCACGTGTTGAG,0.32
12,TGTTTCACGTGGGTTG,0.23
13,CGGGCCACGTGGTCTG,-0.13
14,CGTCGCACGTGGTGGT,-0.11
15,TTTTTCACGTGCATTT,0.35
16,TAGGACACGTGTGTCG,0.08
17,ATCGGCACGTGGTGAA,0.02
18,TTAATCACGTGGGCAG,-0.05
19,TGATGCACGTGCGTGG,-0.2
20,GTGCTCACGTGGAGGA,0.21
21,TTATTCACGTGCCTGG,0.26
22,GGGCTCACGTGAAGGT,0.54
23,AAAAGCACGTGTTGTG,-0.13
24,AAGGACACGTGGGTAA,-0.02
25,TTATCCACGTGGGTCT,-0.03
26,TGGTTCACGTGATCGT,0.25

row,Sequence,relative binding free energy [kcal/mol]
1,TTGTGCACGTGTAGTT,0.1
2,AAGTACACGTGGTGGC,-0.02
3,TATTCCACGTGATTGG,0.17
4,GGCAGCACGTGAGGAT,0.27
5,GTAGGCACGTGTCGTG,0.04
6,TGTGGCACGTGCGACT,-0.15
7,TTAGACACGTGGTAGG,0
8,TATGTCACGTGATGAG,0.24
9,GGGTTCACGTGACTTG,0.43
10,AGGGGCACGTGCTGGA,-0.26
11,TGTGGCACGTGATATG,0
12,TTAGACACGTGATTTA,0.18
13,AATGGCACGTGAGAGG,0.21
14,ATTGGCACGTGCTTTG,-0.09
15,TTTTGCACGTGTGACA,0.09
16,ATAAGCACGTGGGAGA,-0.03
17,CCGTGCACGTGGTTTG,-0.04
18,TTATTCACGTGTGATT,0.34
19,TAGTACACGTGGTACT,-0.05
20,AGCATCACGTGTTGAG,0.23
21,GGAGACACGTGTCGTG,-0.13
22,CGTGTCACGTGGAAAT,0.24

# From the BET-seq Pho4 binding data (Le et al. 2018)
